Assay results as given in PubChem BioAssay AID1347430 (National Center for Advancing Translational Sciences (NCATS), 2020).
Screen size: about 91,000 compounds; about 130 (0.14%) were called active. The inconclusive results got no clear call from the source; some entries with a clear call stand among them for comparison. Calls follow the shape of the dose curve; as a rule, active = well fitted inhibition curve with a large enough effect; inconclusive = small, poorly fitted or top-dose-only effect; inactive = flat fitted curve, though single readings scatter. Where the call is inconclusive, the potency comes from a doubtful curve fit.

Test system: Uracil-DNA glycosylase
Experiment: Primary qHTS assay for inhibitors of Activation Induced Cytidine Deaminase (AID): UDG Counterscreen signal; also: nearly all actives have a fitted effect of over 65% in size
Settings: FRET deamination/UDG coupled assay, UDG read, 4 h; activity change, negative = inhibition: at 115 µM (top of the series)
% is scaled to controls: 0 for no effect and ±100 for the full control effect; potency is read from the fitted curve at half-maximal effect; tags tell the direction and shape of the fitted curve.

| Compound | activity change, negative = inhibition | Potency |
| --- | --- | --- |
| CCCNC(=O)c1cccc(CNCc2cccnc2)c1 | inactive: -9.4% |  |
| Clc1ccc(-n2ncc3c(NC4CCCCCCCCCCC4)ncnc32)cc1 | inactive: -2.12% |  |
| Cc1ccc(-c2noc(-c3ccco3)n2)s1 | inactive: 0.904% |  |
| COc1ccc(C(=O)Nc2cnc3c(cnn3C(C)C)c2)cc1S(=O)(=O)N1CCCC1 | inactive: 1.24% |  |
| CCOC(=O)CNC(=O)c1cc(-c2ccc(C)s2)nc2ccccc12 | inactive: 3.09% |  |
| COc1ccc(-c2nn3c(-c4ccc(C(C)(C)C)cc4)nnc3s2)cc1OC | inactive: -1.61% |  |
| CC(C)N(Cc1ccccc1)C(=O)c1cc2ccc3cccnc3c2[nH]1 |  | inconclusive: 89.1 µM [inhibitor, single point] |
| Cc1cccc(N2CCN(C(=O)c3cc4c(=O)[nH]c5ccc(C)cc5c4s3)CC2C)c1 (stereo unspecified) |  | inconclusive: 100 µM [inhibitor, partial curve, poor fit] |
| COc1ccc(C)cc1NC(=O)c1ccc2nc(Cc3ccccc3)oc2c1 |  | inconclusive: 31.6 µM [inhibitor, full curve] |
| COc1ccc(N2CCN(C(=O)CSc3nc4ccccc4nc3Cc3ccc(Cl)cc3)CC2)cc1 |  | inconclusive: 89.1 µM [inhibitor, partial curve, poor fit] |
| Cc1c(C(=O)NCCc2ccc(Cl)cc2)cccc1-n1cnc2cccnc21 |  | inconclusive: 89.1 µM [inhibitor, single point] |
| CCc1ccc(-n2c(C)nnc2SCc2nc(-c3ccc(OC)cc3)no2)cc1 |  | inconclusive: 79.4 µM [inhibitor, partial curve] |
| COc1ccccc1CNC(=O)C1CCN(Cc2nc(-c3ccc(OC)c(OC)c3)oc2C)CC1 |  | inconclusive: 89.1 µM [inhibitor, single point] |
| CCCN(CCC)C(=O)Cn1c(=O)n(Cc2ccc(C(=O)NCCc3ccc(OC)c(OC)c3)cc2)c(=O)c2ccccc21 |  | inconclusive: 14.1 µM [inhibitor, full curve, poor fit] |
| CCOc1cc(CNc2ccc(O)cc2)cc(Br)c1OCc1ccccc1 | inactive: -13.5% |  |
| Cc1cc(C)c2c(=O)cc(C(=O)Nc3ccc(S(=O)(=O)Nc4nc(C)cc(C)n4)cc3)oc2c1 |  | inconclusive: 39.8 µM [inhibitor, partial curve, poor fit] |
| Cc1ccc(OCCSc2nc3ccccc3n2CC(=O)N2CCOCC2)c(C)c1 |  | inconclusive: 89.1 µM [inhibitor, partial curve] |
| Cc1cc(SCC(=O)NCCC#N)nc2c(C)cccc12 | inactive: 2.59% |  |
| O=C(Nc1cccc(N2CCCC2=O)c1)c1ccccc1SC1CCS(=O)(=O)C1 (stereo unspecified) | inactive: -7.93% |  |
| COc1ccc(OC)c(NC(=O)Cc2coc3ccc(C(C)C)cc23)c1 |  | inconclusive: 39.8 µM [inhibitor, partial curve] |
| O=C(NCc1ccccc1)c1cccc(-c2cnc3ccccc3c2)c1 |  | inconclusive: 89.1 µM [inhibitor, single point] |
| Cc1ccc(-c2cc(C(=O)NCc3cnn(C)c3C)c3cc(Br)ccc3n2)cc1 |  | inconclusive: 89.1 µM [inhibitor, single point] |

| Compound | activity change, negative = inhibition | Potency |
| --- | --- | --- |
| CCS(=O)(=O)N1CCc2cc(C(=O)NCc3ccc(OC)cc3)ccc21 |  | inconclusive: 89.1 µM [inhibitor, single point] |
| Fc1ccccc1Cn1c(-c2ccccc2)nc2ccccc21 |  | inconclusive: 39.8 µM [inhibitor, single point] |
| CC(c1nc(C(C)(C)C)no1)N1CCN(C(=O)c2ccco2)CC1 (stereo unspecified) | inactive: -7.71% |  |
| CSc1cccc(NC(=O)C2CCN(C(=O)c3cnn(-c4ccccc4)c3-n3cccc3)CC2)c1 |  | inconclusive: 89.1 µM [inhibitor, partial curve, poor fit] |
| Cn1c(=O)[nH]c(=O)c2c1nc(CN1CCN(Cc3ccccc3)CC1)n2CCCO | inactive: 0.607% |  |
| COc1ccc(CNC(=O)c2ccc3c(c2)nc2n3CCOC2)c(OC)c1 |  | inconclusive: 79.4 µM [inhibitor, single point] |
| CCCc1c(C)nc2ncnn2c1Nc1ccc(C)cc1 | inactive: -10.6% |  |
| CCCCn1c(NCc2ccc(OC)cc2O)nc2ccccc21 |  | inconclusive: 100 µM [inhibitor, single point] |
| Brc1cccc(/C=N/Nc2ccc3ccccc3c2)c1 | inactive: -15.9% |  |
| Cn1c(=O)n(C)c2cc(N3CCOCC3)c(NC(=O)c3ccccc3Br)cc21 |  | inconclusive: 89.1 µM [inhibitor, single point] |
| CC(=O)Nc1ccc(NC(=O)CSc2nc3ccccc3nc2N2CCC(C)CC2)cc1 |  | inconclusive: 100 µM [inhibitor, single point] |
| CCOc1ccc(-c2nnc(N3CCCCC3)c3ccccc23)cc1 |  | inconclusive: 89.1 µM [inhibitor, single point] |
| Cc1ccc(OC(=O)CSc2nnc(-c3cccs3)o2)cc1 |  | inconclusive: 89.1 µM [inhibitor, single point] |
| CC(NC(=O)CN(c1ccc(Cl)cc1Cl)S(=O)(=O)c1ccccc1)c1ccccc1 (stereo unspecified) |  | inconclusive: 89.1 µM [inhibitor, single point] |
| CCOc1ccccc1NC(=O)Cn1c(=O)n(Cc2ccccc2)c(=O)c2cccnc21 |  | inconclusive: 100 µM [inhibitor, single point] |
| Cc1cc(C)cc(NC(=O)C2CCCN(C(=O)c3cnn(-c4ccccc4)c3-n3cccc3)C2)c1 (stereo unspecified) |  | inconclusive: 79.4 µM [inhibitor, partial curve, poor fit] |
| CC1=C(c2ccc(C)c(C)c2)S(=O)(=O)N(Cc2ccc(C(=O)NCc3ccccc3F)cc2)C1=O |  | inconclusive: 79.4 µM [inhibitor, partial curve, poor fit] |
| O=c1cc(CCl)c2ccc3ccccc3c2o1 | inactive: 5.92% |  |
| O=C(NC1CCCC1)c1cc(-c2ccncc2)nc2c(Cl)cccc12 | inactive: -9.14% |  |
| CCc1ccc(C(=O)c2cn(CC(=O)NCCc3ccccc3)c3nc(C)ccc3c2=O)cc1 |  | inconclusive: 100 µM [inhibitor, single point] |
| COc1ccc(Cn2c(SCc3ccc(C(=O)NCc4ccc(C)cc4)cc3)nc3cccnc32)cc1 |  | inconclusive: 79.4 µM [inhibitor, single point] |
| Cc1ccc(C2=Nc3ccccc3N=C(c3ccc(F)cc3)C2)c(O)c1 |  | inconclusive: 89.1 µM [inhibitor, single point] |

| Compound | activity change, negative = inhibition | Potency |
| --- | --- | --- |
| COc1ccccc1NC(=O)CC1Sc2ccc(C(F)(F)F)cc2NC1=O (stereo unspecified) |  | inconclusive: 89.1 µM [inhibitor, single point] |
| O=C(Nc1ccccc1F)c1cnc(N2CCCCC2)c2ccccc12 |  | inconclusive: 100 µM [inhibitor, single point] |
| COc1cc(CN(C(=O)c2ccc(OC(C)C)cc2)c2ccccn2)cc(OC)c1OC |  | inconclusive: 89.1 µM [inhibitor, single point] |
| Cc1cc(C)c(S(=O)(=O)Nc2ccc(-c3ccc(N4CCCCCC4)nn3)cc2)c(C)c1 |  | inconclusive: 79.4 µM [inhibitor, partial curve, poor fit] |
| Fc1ccc(-c2csc(-c3ccsc3)n2)cc1F | inactive: -10.3% |  |
| C=CCOc1ccc(C(=O)NCC(F)(F)F)cc1 | inactive: -7.94% |  |
| CC(=O)Nc1ccc2nc(SCCOc3cc(C)cc(C)c3)sc2c1 |  | inconclusive: 89.1 µM [inhibitor, partial curve, poor fit] |
| COc1ccc(OCC(=O)NCc2ccc3c(c2)CCN3C(=O)c2ccc(F)cc2)cc1 |  | inconclusive: 89.1 µM [inhibitor, partial curve, poor fit] |
| COc1cc(NC(=O)COCc2cc(-c3ccc4c(c3)OCO4)on2)cc(OC)c1 |  | inconclusive: 89.1 µM [inhibitor, single point] |
| CCn1cc(S(=O)(=O)c2ccccc2)c(=O)c2cc(F)c(N3CCN(c4ccccc4)CC3)cc21 |  | inconclusive: 79.4 µM [inhibitor, single point] |
| O=C(Nc1ccc(OC(F)(F)F)cc1)C1CCN(S(=O)(=O)c2cccs2)CC1 |  | inconclusive: 89.1 µM [inhibitor, partial curve, poor fit] |
| N#Cc1ccc(C(=O)Nc2ccc3c(c2)N(C2CCCC2)C(=O)c2ccccc2S3)cc1 |  | inconclusive: 56.2 µM [inhibitor, partial curve, poor fit] |
| CC(C)Sc1ncc(Cl)c(C(=O)N(Cc2ccc(N(C)C)cc2)C2CCS(=O)(=O)C2)n1 (stereo unspecified) |  | inconclusive: 100 µM [inhibitor, single point] |
| CCOc1ccc(C2C(C(=O)Nc3ccccc3)=C(C)Nc3nc(SCc4cc(C)ccc4C)nn32)cc1 (stereo unspecified) |  | inconclusive: 89.1 µM [inhibitor, single point] |
| COc1ccc(CC(=O)NCCc2csc3nc(-c4ccccc4F)nn23)cc1 | inactive: 0.975% |  |
| CCN(CCCNC(=O)c1cc2c(Cl)nc3ccccc3c2s1)Cc1ccccc1 | inactive: -19.4% |  |
| CCN(Cc1ccccc1)c1ncnc2c1nnn2C |  | inconclusive: 89.1 µM [inhibitor, single point] |
| COc1ccc(OC)c(/C=C/C(=O)Nc2ccc(C(=O)OCCC(C)C)cc2)c1 |  | inconclusive: 56.2 µM [inhibitor, partial curve, poor fit] |
| CNC(=O)C(C)Sc1n[nH]c(-c2ccc(OC)cc2OC)n1 (stereo unspecified) | inactive: -1.86% |  |
| Cc1ccccc1C(=O)Oc1c(Sc2ccccc2)c(C)nn1C(C)(C)C |  | inconclusive: 89.1 µM [inhibitor, single point] |
| CCCN1CCC2(CC1)Oc1c(OC)cccc1C1CC(c3ccc4c(c3)OCO4)=NN12 (stereo unspecified) |  | inconclusive: 56.2 µM [inhibitor, partial curve, poor fit] |
| CCOc1ccccc1C1Nc2ccccc2-c2nnc(SCc3ccccc3)nc2O1 (stereo unspecified) |  | inconclusive: 89.1 µM [inhibitor, single point] |
